The assay concerns the target T1, biotinylated human HVEM-Fc (R&D Systems) (human, UniProt Q92956 39-202, biotinylated).
T1 construct: also called hHVEM; not shown: Fc part of the commercial fusion protein; not described
T1 sequence (looked up): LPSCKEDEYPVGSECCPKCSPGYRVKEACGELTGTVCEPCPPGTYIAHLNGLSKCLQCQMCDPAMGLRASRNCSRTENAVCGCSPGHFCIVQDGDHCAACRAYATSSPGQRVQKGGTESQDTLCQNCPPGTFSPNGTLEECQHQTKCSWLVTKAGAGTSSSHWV
Briefly: flow cytometry on CHO cells expressing human BTLA, biotinylated human HVEM-Fc at 1 ug/mL, PE-SA detection. A general note: A flow cytometer gives signals particle by particle.

B1: human BTLA expressed on CHO cells (receptor)
chain: not shown
notes: also called CHO/huBTLA; hBTLA
For the molecule B1, the binding result is “binds”.

The values above are taken from US20140017255A1 (E R SQUIBB AND SONS L L C, published 2014).
